About 7,500 (2.1%) of roughly 360,000 compounds were called active. This list was built around the results that the source calls inconclusive (neither active nor inactive); the mix of calls is not that of the screen. Calls come from the whole dose curve; as a rule, active = well fitted cell-killing curve with a large enough effect; inconclusive = small, poorly fitted or top-dose-only effect, or effect the other way, or another doubt; inactive = no such curve, though single readings can be large or run the other way. Potencies of inconclusive entries are left out as doubtful fits.
Assay: qHTS for induction of synthetic lethality in tumor cells producing 2HG: qHTS for the HT-1080-IDH1KD cell line;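 for activity, negative = toxicity: 0% = DMSO wells and -100% = cell-free medium wells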
Conditions: HT-1080 IDH1 knockdown viability, ATP luminescence, 48 h; activity, negative = toxicity: at 46.1 µM (top of the series) unless noted
How it was run: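 After a 2 h attachment period, IDH1KD HT-1080 cells took pin-transferred compound for 48 h at 37 °C; ATP-based luminescence after 10 min room-temperature reagent incubation reported viability.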
Potency is the fitted concentration of half-maximal effect; tags give direction and shape of the fitted curve.

SMILES	Potency	activity, negative = toxicity
CCC1(C)CC(CCNS(=O)(=O)c2ccc(C)cc2)(c2ccc(C)cc2)CCO1 (centres undefined)	inconclusive [cytotoxic, single point]	–
COc1cccc(CN(C)c2nc(-c3cccs3)nc3ccccc23)c1	inconclusive [cytotoxic, partial curve]	–
CCOC(=O)c1sc(N(Cc2ccccc2)C(=O)CSc2nnc(C3CC3)n2N)nc1C	inconclusive [cytotoxic, single point]	–
O=C(N/N=C/c1cccc2cccnc12)[C@H]1C[C@@H]1c1ccccc1	inconclusive [cytotoxic, partial curve]	–
O=C(Nc1ccccn1)c1ccc([N+](=O)[O-])o1	inconclusive [cytotoxic, partial curve]	–
CSc1nc(N)nc(SCC(=O)c2ccc(C)cc2)c1C#N	inconclusive [cytotoxic, single point]	–
N=c1n(CCN2CCCCC2)c2ccccc2n1CC(O)COc1ccccc1 (centres undefined)	inconclusive [cytotoxic, single point]	–
C=CCc1ccccc1OCC(O)CN(C(C)C)C(C)C (centres undefined)	–	inactive: -1.43%
O=C(/C=C/c1cn(CC(O)CN2CCCCCC2)c2ccccc12)c1cccs1 (centres undefined)	active: 20.6 µM	–
Cc1cc(C)cc(N(C(=O)c2nsc(Cl)c2Cl)C(C(=O)NC2CCCC2)c2ccc(O)cc2)c1 (centres undefined)	inconclusive [cytotoxic, single point]	–
O=C(NCc1ccccc1)C(CCc1ccccc1)n1c(=O)c(-c2cc3ccccc3[nH]2)nc2ccccc21 (centres undefined)	inconclusive [cytotoxic, partial curve]	–
CN(c1ccccc1)S(=O)(=O)c1ccc(Cl)c(C(=O)Nc2ccc(N3CCOCC3)cc2)c1	inconclusive [cytotoxic, partial curve]	–
CC(=O)c1ccc(OCC(O)CN2CCN(CCN3C(=O)c4cccc5cccc(c45)C3=O)CC2)cc1 (centres undefined)	inconclusive [cytotoxic, single point]	–
COc1cc(CN(C)C(C)C(=O)Nc2ccc([N+](=O)[O-])cc2Cl)ccc1OC(F)F (centres undefined)	–	inactive: 2.98%
CCCc1cc(C(=O)OC)c2ccccc2n1	–	inactive: 7.57%
O=C(CC1(O)C(=O)N(Cc2cccc3ccccc23)c2ccccc21)c1cccnc1 (centres undefined)	active: 10 µM	–
O=C1OC(c2ccccc2)(c2ccc(O)cc2)c2ccccc21 (centres undefined)	inconclusive [cytotoxic, single point]	–
N#Cc1c(NC(=O)CCCl)sc2c1CCCCC2	active: 23.1 µM	–
C=C1CC[C@@H]2[C@](C)(CO)[C@H](O)CC[C@@]2(C)[C@@H]1C/C=C1/C(=O)OCC1O (some centres undefined)	inconclusive [cytotoxic, single point]	–
O=C(Nc1ccccc1)c1ccc(S(=O)(=O)N2CCCCC2)cc1	–	inactive: -0.334%
CC1=C(C(=O)Nc2ccccc2C(=O)N2CCCCC2)SCCO1	–	inactive: 3.67%
CCCCCc1c(-c2ccc(F)cc2)ncn1CCc1ccccc1OC	inconclusive [cytotoxic, single point]	–

SMILES	Potency	activity, negative = toxicity
CCOC(=O)C1=CN(Cc2cccc(F)c2)S(=O)(=O)NC1c1ccc(F)c(Cl)c1 (centres undefined)	inconclusive [cytotoxic, single point]	–
Oc1ccc(C[C@H]2CNC(=S)N2C[C@H]2CCCN2C[C@H](Cc2ccccc2)N2C[C@H](Cc3ccc(O)cc3)N(CC3CCCCCC3)C2=S)cc1	active: 18.4 µM	–
Cn1nc(C(=O)NCc2ccc(F)cc2)cc1C(=O)NCc1ccc(F)cc1	inconclusive [cytotoxic, partial curve]	–
O=c1ccsn1Cc1ccccc1	active: 23.1 µM	–
Cc1noc(C)c1-c1ccc(C(=O)NCC(C)C)c2occc12	–	inactive: 4.74%
Cc1c(C(=O)c2ccc(F)cc2F)c2ccccn2c1CCC#N	–	inactive: -8.01%
CC(C)(C)NS(=O)(=O)c1ccc(NC(=O)NC2CCCCC2)cc1	inconclusive [cytotoxic, partial curve]	–
Cc1csc2ncnc(NC3CCN(Cc4ccccc4)CC3)c12	–	inconclusive: -39.6% [cytotoxic]
Cc1ccc(C)c(NC2=C(Cl)C(=O)OC2OC(=O)c2ccco2)c1 (centres undefined)	inconclusive [cytotoxic, single point]	–
CCN1C(=O)c2ccccc2Sc2ccc(C(=O)NCCN3CCOCC3)cc21	–	inactive: 5.24%
CC(=O)Nc1nc(C)c(-c2csc(Nc3ccc(O)cc3)n2)s1	active: 18.4 µM	–
CN(C)CCCNC(=O)C[C@H]1C[C@H](C(=O)N2CCOCC2)[C@@]2(CCC3CCCC3)c3[nH]c4cc(-c5ccco5)ccc4c3CCN2C1=O	inconclusive [cytotoxic, single point]	–
CN(Cc1ccc(Cl)cc1)C(CCc1ccccc1)C(=O)NC1CCCCC1 (centres undefined)	inconclusive [cytotoxic, single point]	–
Cc1ccc(S(=O)(=O)N2C[C@H]3n4c(=O)ccc(=O)n4C[C@H](OC(=O)NC4CCCC4)[C@@]3(O)C2)cc1	inconclusive [cytotoxic, single point]	–
C=CCn1c(-c2csc3ccccc23)n[nH]c1=S	inconclusive [cytotoxic, single point]	–
CCOc1ccc(C(=O)c2cc([N+](=O)[O-])ccc2N2CCOCC2)cc1	active: 0.0259 µM	–
CCNC(=O)/C(C#N)=C/c1c(N(Cc2ccccc2)Cc2ccccc2)nc2ccccn2c1=O	inconclusive [cytotoxic, single point]	–
CCOC(=O)C1(C)CCN1C(=O)c1ccc(N(C)C)cc1 (centres undefined)	–	inactive: 19.7%
COc1ccc(C(C(=O)NC2CCCCC2)N(Cc2cccs2)C(=O)Cc2c[nH]c3ccccc23)cc1OC (centres undefined)	inconclusive [cytotoxic, single point]	–
CCCNC(=O)Nc1ccc2c(c1)OC[C@H](C)N(C(=O)C1CCCCC1)C[C@@H](C)[C@H](OC)CN(C)C2=O	–	inactive: 16.6%
O=c1[nH][nH]c2cc([N+](=O)[O-])ccc12	active: 14.6 µM	–
COc1cc(SC)ccc1C(=O)NCCOc1ccc(F)cc1	–	inactive: 3.19%

— PubChem BioAssay AID686971 (National Center for Advancing Translational Sciences (NCATS), 2013)
